# Measured values from the supplement of paper PMC3334620.
# The full ranking holds about 33,000 sequences; the median of “E-score (-0.5 to 0.5)” is about -0.035, and the highest 2% start at about 0.35. This is one part of the list.
# Target: T1, Pdr3 (UniProt P33200)
# T1 sequence: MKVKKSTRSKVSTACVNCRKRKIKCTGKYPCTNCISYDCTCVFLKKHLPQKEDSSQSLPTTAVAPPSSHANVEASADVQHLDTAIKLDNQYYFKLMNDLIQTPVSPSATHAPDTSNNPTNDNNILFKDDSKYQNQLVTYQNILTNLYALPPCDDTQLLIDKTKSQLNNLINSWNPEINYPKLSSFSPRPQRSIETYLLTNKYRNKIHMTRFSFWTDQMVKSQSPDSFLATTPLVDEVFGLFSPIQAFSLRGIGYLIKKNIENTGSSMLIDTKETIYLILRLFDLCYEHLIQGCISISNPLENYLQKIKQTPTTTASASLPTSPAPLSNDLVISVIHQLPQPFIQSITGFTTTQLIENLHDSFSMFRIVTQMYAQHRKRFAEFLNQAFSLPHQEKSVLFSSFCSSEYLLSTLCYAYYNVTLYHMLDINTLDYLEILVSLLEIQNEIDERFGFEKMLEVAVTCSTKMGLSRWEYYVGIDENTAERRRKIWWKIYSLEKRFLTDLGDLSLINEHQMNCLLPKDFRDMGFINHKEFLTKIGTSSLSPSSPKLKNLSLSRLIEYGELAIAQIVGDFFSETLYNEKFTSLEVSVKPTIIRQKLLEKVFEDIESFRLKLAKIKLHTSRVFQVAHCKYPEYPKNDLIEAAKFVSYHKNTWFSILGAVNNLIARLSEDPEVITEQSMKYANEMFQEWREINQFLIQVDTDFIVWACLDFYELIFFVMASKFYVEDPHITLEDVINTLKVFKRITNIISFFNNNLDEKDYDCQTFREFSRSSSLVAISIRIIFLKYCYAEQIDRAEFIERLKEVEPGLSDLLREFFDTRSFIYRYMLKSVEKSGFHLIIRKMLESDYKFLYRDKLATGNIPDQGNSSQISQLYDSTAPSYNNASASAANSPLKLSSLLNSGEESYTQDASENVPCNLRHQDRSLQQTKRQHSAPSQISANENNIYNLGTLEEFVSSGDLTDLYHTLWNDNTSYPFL
# Experiment: PBM E-score (8-mer binding enrichment) (E-score (-0.5 to 0.5)); higher = stronger / more preferred TF binding; most listed sequences are background and not binding sites
# Details: protein concentration: 200 nM; construct: GST-full length
# Summary of the method: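 Masliner-normalised scans of fluorescent anti-GST signal were the basis for scoring. That signal came from GST-tagged yeast transcription factors applied at about 100-200 nM to double-stranded universal all-10-mer Agilent arrays on fresh or once-stripped slides. Each ungapped eight-base word, pooled with its reverse complement, received an E-score from the Universal PBM Analysis Suite.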
row,Sequence,PBM E-score
1,AGACATGG,-0.0476
2,GTTTGTGA,-0.0801
3,AGACGTGA,-0.0745
4,CGTCATGC,-0.0236
5,ATCAATGG,-0.0283
6,AACTGAGC,0.00305
7,CCGATAGG,0.161
8,AAGGTCTC,-0.199
9,TTCGCAAA,0.118
10,AACCCCTG,-0.106
11,GCAACGAA,0.0611
12,ATCTAAAC,-0.113
13,AGTTGATC,0.0242
14,ACTGCCAA,0.0154
15,AGGAGAAT,-0.00643
16,AGAATATC,0.048
17,ACGAACGA,-0.085
18,CTACATTA,-0.155
19,CACAAACA,-0.051
20,AGAACACC,-0.0492
21,CCATTAGA,-0.252
22,ATCTAATG,-0.0667

row,Sequence,PBM E-score
1,ACACAAGA,-0.0489
2,GAGATTCC,0.303
3,AATCTTCC,0.247
4,ATGTTAGG,-0.142
5,AGAAGTCT,-0.164
6,CCCGTTCC,0.347
7,AAACTTAA,-0.00554
8,AGTTAGGG,-0.0903
9,ATTACGAC,0.0333
10,GAGTCCCA,0.0653
11,AGGGTTGA,-0.193
12,AAATCCTT,-0.0854
13,CACCGGTC,-0.12
14,CAGTAGGA,-0.217
15,TACCGGCA,0.214
16,ATAACAGA,0.0279
17,ACCGACTG,0.0515
18,AACAAAAC,0.0622
19,CACACGCG,0.158
20,CCGGACGA,0.36
21,CCTTCAGA,-0.244
22,AGACCGGG,0.152

row,Sequence,PBM E-score
1,CTCGAATC,-0.242
2,CCCGGGCA,0.375
3,AGCGCTAG,-0.0879
4,CTACCTCA,0.0597
5,CATGTCCG,0.282
6,ACGCAAGG,-0.0997
7,CTGGTTCA,-0.107
8,AAGCCCTT,-0.265
9,CATACCCA,-0.0695
10,AGGGGACG,-0.0247
11,GCCGTGGA,0.258
12,CGACACTA,0.11
13,AGAACAAC,-0.0827
14,CATTTATA,-0.105
15,ACTCTTAC,-0.0821
16,AAGTGTAG,-0.188
17,CGGTCCGA,0.378
18,TAGAAAGA,-0.248
19,AATAGGAG,-0.28
20,GACGCAGC,-0.143
21,AGAAGCGC,0.136
22,AATTGAAG,-0.0227

row,Sequence,PBM E-score
1,ACTAGGAG,-0.0988
2,AATAAGTA,-0.119
3,AGATTTGA,-0.0183
4,GCGCCCTA,0.00749
5,ATCTTTCA,-0.0345
6,AGTCTTGC,-0.285
7,AGTCCAAC,-0.126
8,GGGGTTCA,-0.00336
9,ACAAGCAC,-0.021
10,GTGTACGA,0.108
11,AAAAAGTG,-0.143
12,CCGGTCGC,0.147
13,GCCCAGAC,-0.222
14,CCTGAAAA,-0.19
15,ATAGTGAT,-0.0665
16,AGGAAAGC,-0.105
17,ACTAAAGT,-0.266
18,CGACAATC,0.134
19,CCCCGTCA,0.156
20,ACCCCTAG,-0.227
